{
  "source": "PubChem BioAssay AID927",
  "about": "(National Center for Advancing Translational Sciences (NCATS), 2007)",
  "note": "Out of some 60,000 compounds screened, about 65 (0.1%) were called active. This list was built around the results that the source calls inconclusive (neither active nor inactive); the mix of calls is not that of the screen. Calls follow the shape of the dose curve; as a rule, active = well fitted inhibition curve with a large enough effect; inconclusive = small, poorly fitted or top-dose-only effect; inactive = no such curve, though single readings can be large or run the other way. Potencies beside an inconclusive call are fits to weak or partial responses and may not hold up. Non-standard residues stand in square brackets, D forms with d. Residues, ends and D or L forms follow the SMILES beside them. ξ: configuration not given here. ξV = CC(C)C(N)C(=O)O",
  "data": [
    {"biological_target": "Ubiquitin carboxyl-terminal hydrolase 2 (Homo sapiens) (UniProt O75604)", "sequence (O75604 whole entry, looked up)": "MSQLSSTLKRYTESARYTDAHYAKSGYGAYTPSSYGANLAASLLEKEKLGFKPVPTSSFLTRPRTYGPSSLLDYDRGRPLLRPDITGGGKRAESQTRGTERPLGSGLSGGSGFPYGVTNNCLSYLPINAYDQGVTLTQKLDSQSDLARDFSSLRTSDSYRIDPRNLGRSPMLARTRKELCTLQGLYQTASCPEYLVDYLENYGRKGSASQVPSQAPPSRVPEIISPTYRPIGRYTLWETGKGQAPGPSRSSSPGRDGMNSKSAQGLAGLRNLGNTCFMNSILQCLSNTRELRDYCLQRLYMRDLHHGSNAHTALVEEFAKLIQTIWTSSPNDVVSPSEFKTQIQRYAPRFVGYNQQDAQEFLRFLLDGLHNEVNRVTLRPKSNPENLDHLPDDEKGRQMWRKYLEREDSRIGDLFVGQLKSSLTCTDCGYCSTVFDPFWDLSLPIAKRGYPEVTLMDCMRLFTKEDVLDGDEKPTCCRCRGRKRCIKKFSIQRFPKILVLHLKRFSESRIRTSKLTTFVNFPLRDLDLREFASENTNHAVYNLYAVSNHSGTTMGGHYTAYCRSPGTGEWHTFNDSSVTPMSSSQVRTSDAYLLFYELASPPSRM", "assay": "qHTS Assay for Inhibitors of Ubiquitin-specific Protease USP2a; also: nearly all actives have a fitted effect of over 60% in size; also: potency is read from the fitted curve at half-maximal effect; tags tell the direction and shape of the fitted curve", "conditions": "USP2a enzymatic assay; Potency: qHTS inhibition; activity change, negative = inhibition: at 38.3 µM (top of the series)", "text": "NIH Molecular Libraries Screening Centers Network [MLSCN]\nNIH Chemical Genomics Center [NCGC]\nPI Name: Nicholson, Ben. Progenra Inc, Malvern, PA\nHomeostasis of cellular proteins is maintained through a combination of synthesis and degradation. The pathway that accounts for the majority of protein degradation is the ubiquitin-proteasomal pathway. Ubiquitin (Ub) is highly conserved in all cells and the generation of a multi-Ub chain typically targets proteins for degradation by the proteasome. However, ubiquitination is highly reversible and dynamic. Deubiquitination, the reverse process, is catalyzed through the action of enzymes referred to as isopeptidases or deubiquitinating enzymes (DUBs). This group of enzymes is collectively responsible for maintaining adequate pools of free ubiquitin and regulating the ubiquitination status of cellular proteins. The class of DUBs referred to as the ubiquitin-specific proteases (USP) family functions endoproteolytically to cleave Ub chains from a wide range of protein substrates. USP2a deubiquitinates fatty acid synthase (FASN) which has recently been identified as an emerging oncology target. To identify inhibitors of USP2a a cell-free assay was employed.\nThe reporter enzyme chosen is phospholipase A2 (PLA2), which has an absolute requirement for a free amino terminus. Thus, fusion of a UBL to the N-terminus of PLA2 inactivates PLA2. When the UBL-PLA2 reporter enzyme is cleaved by USP2, the activated reporter can subsequently act on its substrate, which is the commercially available NBD C6-HPC (Invitrogen). Thus, this coupled assay gives a fluorescent read-out, which is generated through the cleavage of the PLA2 reporter enzyme. The assay, developed by Progenra, Inc. uses Ub-PLA2 and USP2a at near equal and low (nM) amounts and has been licensed for sale by LifeSensors, Inc. as the Ub-IsoPro1 kit.\nNCGC Assay Protocol Summary:\nThe assay buffer, prepared fresh at the day of the assay, contains 20mM Tris-HCl pH 8.0, 2mM CaCl2, 2mM beta-Mercaptoethanol, 0.1% DMSO. 3ul of 40nM (20nM final) USP2 core, which is stored on ice, is dispensed into a medium-binding black solid Kalypsys 1,536 well plate using the Kalypsys dispenser. The assay plate is then pinned with 23nL compound with the Kalypsys pintool in columns 5-48. The controls are pinned as follows: column 1&2 two-fold dilutions of 2M NEM in duplicate; column 3 DMSO; column 4 2M NEM (final concentration 38.2mM). The assay plate is incubated at RT for 30min. Subsequently, 3uL of 40nM (20nM final) Ub-PLA2 and 40uM (20uM final) NBD C6-HPC (stored on ice and protected from light) were dispensed into the plate using the Kalypsys dispenser. Plates were read immediately (0 Hour) on an Envision (Perkin Elmer) plate reader using the following wavelengths Ex 460nm /Em 535nm. Then, the assay plates were incubated for 2.5 hours and read again on the Envision using the same settings\nData were normalized to the to AC100 inhibition (NEM). Concentration-response curves were fitted to the normalized data and the concentration-response curves were then classified based on curve quality (r2), response magnitude and degree of measured activity. The time zero reading was used to flag fluorescence artifacts.\nKeywords: ubiquitination, deubiquitination, proteases, profluorescent, MLSMR, MLSCN, NIH Roadmap, qHTS, NCGC", "values": [
      {"smiles": "NC(=O)c1sc2nc(N3CCCCC3)c3c(c2c1N)CCCC3", "Potency": "inconclusive: 3.16 µM [inhibitor, partial curve]"},
      {"smiles": "c1ccc(Sc2ncnc3c2oc2ccccc23)nc1", "Potency": "inconclusive: 3.98 µM [inhibitor, full curve]"},
      {"smiles": "CCOC(=O)c1c(NC(=O)CSc2nnc(-c3ccccc3)n2CC)sc(C(C)=O)c1C", "Potency": "inconclusive: 25.1 µM [inhibitor, single point]"},
      {"smiles": "CCOc1ccc(OCC)c(NC(=O)CN2CCN(c3cc(C)ccc3C)CC2)c1", "Potency": "inconclusive: 20 µM [inhibitor, single point]"},
      {"smiles": "COCCn1c(=O)cnc2cnc(N3CCN(C)CC3)nc21", "Potency": "inconclusive: 12.6 µM [inhibitor, partial curve]"},
      {"smiles": "COc1ccccc1OCCCn1c(=O)oc2ccc(C)cc21", "activity change, negative = inhibition": "inactive: -6.86%"},
      {"smiles": "CCc1oc2ccccc2c1C(=O)c1cc(Br)c(O)c(Br)c1", "Potency": "inconclusive: 0.631 µM [inhibitor, full curve]"},
      {"smiles": "CSc1ccc(-c2c(C#N)c(N)nc3c2CCCC3)cc1", "Potency": "inconclusive: 5.01 µM [inhibitor, single point]"},
      {"smiles": "CCCCOc1ccc(-c2c(C#N)c(N)nc(SCC(N)=O)c2C#N)cc1", "Potency": "inconclusive: 25.1 µM [inhibitor, single point]"},
      {"smiles": "O=C(O)C1CCCCC1C(=O)Nc1nc(-c2cccs2)cs1", "note": "(stereo unspecified)", "Potency": "inconclusive: 12.6 µM [inhibitor, partial curve]"},
      {"smiles": "COC(=O)c1nnn(-c2nonc2N)c1CSc1ccccn1", "Potency": "inconclusive: 20 µM [inhibitor, single point]"},
      {"smiles": "C=C(C)COc1ccc(-c2n[nH]c(C)c2Oc2ccccc2OC)c(O)c1", "Potency": "inconclusive: 12.6 µM [inhibitor, single point]"},
      {"smiles": "CCOc1ccccc1NC(=O)C1C2C=CC(O2)C1C(=O)O", "note": "(stereo unspecified)", "Potency": "inconclusive: 10 µM [inhibitor, partial curve]"},
      {"smiles": "O=C(O)c1ccc(-n2nc(C(F)(F)F)c3c2-c2ccoc2CC3)cc1", "Potency": "inconclusive: 12.6 µM [inhibitor, single point]"},
      {"smiles": "COC(=O)c1cc(=O)nc2sc(-c3ccccc3)nn12", "activity change, negative = inhibition": "inactive: -1.54%"},
      {"smiles": "COC(=O)c1ccc2c(=O)n(CC3CCCO3)c(SCC(=O)Nc3ccccc3OC)nc2c1", "note": "(stereo unspecified)", "activity change, negative = inhibition": "inactive: 23.9%"},
      {"smiles": "C=CCSC1=C(C#N)C(c2cccc(OC)c2)CC(=O)N1", "note": "(stereo unspecified)", "Potency": "inconclusive: 25.1 µM [inhibitor, single point]"},
      {"smiles": "c1cn(-c2cc(-c3ccc4c(c3)OCO4)ncn2)cn1", "Potency": "inconclusive: 10 µM [inhibitor, partial curve]"},
      {"smiles": "O=C(Oc1cccc2cccnc12)c1ccc(Br)o1", "Potency": "inconclusive: 2.51 µM [inhibitor, partial curve]"},
      {"smiles": "Cc1ccc2ccc(S(=O)(=O)n3nc(C)cc3C)cc2c1", "Potency": "inconclusive: 3.16 µM [inhibitor, full curve, poor fit]"},
      {"smiles": "CC(=O)NC(C(=O)NCC(N)=O)C(C)C", "note": "(stereo unspecified) (Ac-[ξV]-Gly-NH2)", "activity change, negative = inhibition": "inactive: -3.58%"},
      {"smiles": "COC1=CC(=O)C=C(OC)C1=O", "Potency": "inconclusive: 7.94 µM [inhibitor, partial curve]"},
      {"smiles": "COC(=O)[C@H](CC(C)C)NC(=O)NC1CCCc2ccccc21", "note": "(stereo partly specified)", "Potency": "inconclusive: 15.8 µM [inhibitor, single point]"},
      {"smiles": "Clc1ccc(C2=Nn3c(nnc3-c3n[nH]c4c3CCC4)SC2)cc1Cl", "Potency": "inconclusive: 25.1 µM [inhibitor, single point]"},
      {"smiles": "Cc1cccc(Nc2nc(-c3ccccn3)cs2)n1", "activity change, negative = inhibition": "inactive: 23.5%"},
      {"smiles": "COc1ccc(-c2coc3c(CN4CCCCC4)c(O)c(CN4CCCCC4)c(O)c3c2=O)cc1", "Potency": "inconclusive: 15.8 µM [inhibitor, single point]"},
      {"smiles": "CCCSC1=N/C(=C\\C=C\\c2ccco2)C(=O)S1", "Potency": "inconclusive: 25.1 µM [inhibitor, single point]"},
      {"smiles": "O=C(Nc1nc(-c2ccc(Cl)s2)cs1)c1ccncc1", "activity change, negative = inhibition": "inactive: 23.9%"},
      {"smiles": "CC(C)NC(=O)N1CCCC2(CCN(C(=O)c3cccc(F)c3)CC2)C1", "Potency": "inconclusive: 10 µM [inhibitor, single point]"},
      {"smiles": "CC1CCN(c2nc(-c3ccncc3)nc3ccccc23)CC1", "Potency": "inconclusive: 31.6 µM [inhibitor, single point]"},
      {"smiles": "Cc1c(N2C(=O)c3ccc4c5c(ccc(c35)C2=O)CC4)c(=O)n(-c2ccccc2)n1C", "activity change, negative = inhibition": "inactive: 6.1%"},
      {"smiles": "Cc1cc2nc(C(F)(F)F)[nH]c(=O)n2n1", "Potency": "inconclusive: 20 µM [inhibitor, single point]"},
      {"smiles": "COc1ccc2[nH]cc(CCNc3ncnc4ccc(-c5ccc6c(c5)OCO6)cc34)c2c1", "Potency": "inconclusive: 25.1 µM [inhibitor, single point]"},
      {"smiles": "Fc1cccc(-c2cc3nc4c(c(N5CCC6(CC5)OCCO6)n3n2)CCCC4)c1", "Potency": "inconclusive: 12.6 µM [inhibitor, single point]"},
      {"smiles": "Oc1ccccc1/C=N/c1c(-c2ccco2)nc2ccccn12", "activity change, negative = inhibition": "inactive: 12%"},
      {"smiles": "CN1CCN(C(=O)c2cc3nc(-c4ccccc4)cc(C(F)(F)F)n3n2)CC1", "activity change, negative = inhibition": "inactive: 7.6%"},
      {"smiles": "C=CCc1cccc(CNc2nc3ccccc3n2CCC)c1O", "Potency": "inconclusive: 12.6 µM [inhibitor, single point]"},
      {"smiles": "CC(C)=CCc1c2c(c3occ(-c4ccc(O)cc4)c(=O)c3c1O)C=CC(C)(C)O2", "Potency": "inconclusive: 15.8 µM [inhibitor, single point]"},
      {"smiles": "c1c2c(cc3sc(N4CCOCC4)nc13)OCCO2", "Potency": "inconclusive: 10 µM [inhibitor, partial curve]"},
      {"smiles": "CCn1c(SCC(=O)Nc2nccs2)nnc1-c1cc2cccc(OC)c2o1", "Potency": "inconclusive: 12.6 µM [inhibitor, single point]"},
      {"smiles": "COc1ccc2[nH]cc(CCNc3cc(-c4ccc5c(c4)OCO5)ncn3)c2c1", "Potency": "inconclusive: 25.1 µM [inhibitor, single point]"},
      {"smiles": "C[C@H](N)CCCC(C)(C)O", "activity change, negative = inhibition": "inactive: -3.19% [at 17.1 µM]"},
      {"smiles": "O=C(c1ccco1)N1c2ccccc2Sc2ccccc21", "activity change, negative = inhibition": "inactive: -2.94%"},
      {"smiles": "Cc1ccc(C(=O)CSc2nnc(COc3cc(C)cc(C)c3)o2)cc1", "activity change, negative = inhibition": "inactive: -3.08%"},
      {"smiles": "COc1ccccc1N1CCN(C(=O)CSc2nc3ncnc(N)c3[nH]2)CC1", "Potency": "inconclusive: 25.1 µM [inhibitor, single point]"},
      {"smiles": "CC(=O)Nc1ccc(C(=O)Nc2ccc(S(=O)(=O)NCC3CCCO3)cc2)cc1", "note": "(stereo unspecified)", "activity change, negative = inhibition": "inactive: 0.479%"}
    ]}
  ]
}
